Results from the supplement of paper PMC12230231.
± gives the standard deviation of the averaged measurements. Restriction of a single-cycle SIVsab GFP reporter by TRIM5α v1-loop variants in CRFK cells. Human variants: read share among cells still uninfected after two challenges over input, higher = gained restriction. Rhesus variants: share among infected cells over input, higher = lost restriction. Reporter dose not given per row. No active / inactive call per row; the paper calls a change when both replicates lie above its controls (mean + 2 SD of stop or wild-type variants, or the top frameshift score). Residues outside the varied loop are taken from Swiss-Prot. The paper reads the human single-substitution scores as noise; they and the rhesus combinations repeat poorly (rank correlation 0.3 to 0.4), indel scores repeat only for the top variants, rhesus substitutions well (0.9).

tested on: SIVsab (simian immunodeficiency virus of sabaeus monkeys), single-cycle GFP reporter, in CRFK cells; test: enrichment among uninfected cells over input (fold); higher = stronger restriction; conditions: library: human / rhesus combinations
Protocol: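 Pools of CRFK cells expressing variants of the TRIM5α v1 loop were challenged with the single-cycle reporter, sorted by GFP and sequenced; mean of two replicates.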

Sequence	enrichment
MASGILVNVKEEVTCPICLELLTQPLSLDCGHSFCQACLTANHKKSMLDKGESSCPVCRISYQPENIRPNRHVANIVEKLREVKLSPEGQKVDHCARHGEKLLLFCQEDGKVICWLCERSQEHRGHHTFLTEEVAREYQVKLQAALEMLRQKQQEAEELEADIREEKASWKTQIQYDKTNVLADFEQLRDILDWEESNELQNLEKEEEDILKSLTNSETEMVQQTQSLRELISDLEHRLQGSVMELLQGVDGVIKRTENVTLKKPETFPKNQRRVFRAPDLKGMLEVFRELTDVRRYWVDVTVAPNNISCAVISEDKRQVSSPKPQIIYGAPGTRFQSLVNFNYCTGILGSQSITSGKHYWEVDVSKKTAWILGVCAGFQPDAMCNIEKNENYQPKYGYWVIGLEEGVKCSAFQDSSFHTPSVPFIVPLSVIICPDRVGVFLDYEACTVSFFNITNHGFLIYKFSHCSFSQPVFPYLNPRKCGVPMTLCSPSS [human TRIM5α, 330-340 = GAPGTRFQSLV]	0.0383 ± 0.052
MASGILVNVKEEVTCPICLELLTQPLSLDCGHSFCQACLTANHKKSMLDKGESSCPVCRISYQPENIRPNRHVANIVEKLREVKLSPEGQKVDHCARHGEKLLLFCQEDGKVICWLCERSQEHRGHHTFLTEEVAREYQVKLQAALEMLRQKQQEAEELEADIREEKASWKTQIQYDKTNVLADFEQLRDILDWEESNELQNLEKEEEDILKSLTNSETEMVQQTQSLRELISDLEHRLQGSVMELLQGVDGVIKRTENVTLKKPETFPKNQRRVFRAPDLKGMLEVFRELTDVRRYWVDVTVAPNNISCAVISEDKRQVSSPKPQIIYGAPGTRFQTLTNFNYCTGILGSQSITSGKHYWEVDVSKKTAWILGVCAGFQPDAMCNIEKNENYQPKYGYWVIGLEEGVKCSAFQDSSFHTPSVPFIVPLSVIICPDRVGVFLDYEACTVSFFNITNHGFLIYKFSHCSFSQPVFPYLNPRKCGVPMTLCSPSS [human TRIM5α, 330-340 = GAPGTRFQTLT]	0.00798 ± 0.003
MASGILVNVKEEVTCPICLELLTQPLSLDCGHSFCQACLTANHKKSMLDKGESSCPVCRISYQPENIRPNRHVANIVEKLREVKLSPEGQKVDHCARHGEKLLLFCQEDGKVICWLCERSQEHRGHHTFLTEEVAREYQVKLQAALEMLRQKQQEAEELEADIREEKASWKTQIQYDKTNVLADFEQLRDILDWEESNELQNLEKEEEDILKSLTNSETEMVQQTQSLRELISDLEHRLQGSVMELLQGVDGVIKRTENVTLKKPETFPKNQRRVFRAPDLKGMLEVFRELTDVRRYWVDVTVAPNNISCAVISEDKRQVSSPKPQIIYQARGTRFQTLVNFNYCTGILGSQSITSGKHYWEVDVSKKTAWILGVCAGFQPDAMCNIEKNENYQPKYGYWVIGLEEGVKCSAFQDSSFHTPSVPFIVPLSVIICPDRVGVFLDYEACTVSFFNITNHGFLIYKFSHCSFSQPVFPYLNPRKCGVPMTLCSPSS [human TRIM5α, 330-340 = QARGTRFQTLV]	3.12 ± 3.5
MASGILVNVKEEVTCPICLELLTQPLSLDCGHSFCQACLTANHKKSMLDKGESSCPVCRISYQPENIRPNRHVANIVEKLREVKLSPEGQKVDHCARHGEKLLLFCQEDGKVICWLCERSQEHRGHHTFLTEEVAREYQVKLQAALEMLRQKQQEAEELEADIREEKASWKTQIQYDKTNVLADFEQLRDILDWEESNELQNLEKEEEDILKSLTNSETEMVQQTQSLRELISDLEHRLQGSVMELLQGVDGVIKRTENVTLKKPETFPKNQRRVFRAPDLKGMLEVFRELTDVRRYWVDVTVAPNNISCAVISEDKRQVSSPKPQIIYGARGTRYTFPSFVNFNYCTGILGSQSITSGKHYWEVDVSKKTAWILGVCAGFQPDAMCNIEKNENYQPKYGYWVIGLEEGVKCSAFQDSSFHTPSVPFIVPLSVIICPDRVGVFLDYEACTVSFFNITNHGFLIYKFSHCSFSQPVFPYLNPRKCGVPMTLCSPSS [human TRIM5α, 330-340 = GARGTRYTFPSFV]	0.0744 ± 0.1
MASGILVNVKEEVTCPICLELLTQPLSLDCGHSFCQACLTANHKKSMLDKGESSCPVCRISYQPENIRPNRHVANIVEKLREVKLSPEGQKVDHCARHGEKLLLFCQEDGKVICWLCERSQEHRGHHTFLTEEVAREYQVKLQAALEMLRQKQQEAEELEADIREEKASWKTQIQYDKTNVLADFEQLRDILDWEESNELQNLEKEEEDILKSLTNSETEMVQQTQSLRELISDLEHRLQGSVMELLQGVDGVIKRTENVTLKKPETFPKNQRRVFRAPDLKGMLEVFRELTDVRRYWVDVTVAPNNISCAVISEDKRQVSSPKPQIIYQARGTLYQTLVNFNYCTGILGSQSITSGKHYWEVDVSKKTAWILGVCAGFQPDAMCNIEKNENYQPKYGYWVIGLEEGVKCSAFQDSSFHTPSVPFIVPLSVIICPDRVGVFLDYEACTVSFFNITNHGFLIYKFSHCSFSQPVFPYLNPRKCGVPMTLCSPSS [human TRIM5α, 330-340 = QARGTLYQTLV]	0.00714 ± 0.0016

same assay, conditions: library: insertions and deletions

Sequence	enrichment
MASGILVNVKEEVTCPICLELLTQPLSLDCGHSFCQACLTANHKKSMLDKGESSCPVCRISYQPENIRPNRHVANIVEKLREVKLSPEGQKVDHCARHGEKLLLFCQEDGKVICWLCERSQEHRGHHTFLTEEVAREYQVKLQAALEMLRQKQQEAEELEADIREEKASWKTQIQYDKTNVLADFEQLRDILDWEESNELQNLEKEEEDILKSLTNSETEMVQQTQSLRELISDLEHRLQGSVMELLQGVDGVIKRTENVTLKKPETFPKNQRRVFRAPDLKGMLEVFRELTDVRRYWVDVTVAPNNISCAVISEDKRQVSSPKPQIIYGARGTRYQTFVNFYCTGILGSQSITSGKHYWEVDVSKKTAWILGVCAGFQPDAMCNIEKNENYQPKYGYWVIGLEEGVKCSAFQDSSFHTPSVPFIVPLSVIICPDRVGVFLDYEACTVSFFNITNHGFLIYKFSHCSFSQPVFPYLNPRKCGVPMTLCSPSS [human TRIM5α, 1-codon deletion at 343]	0.569 ± 0.06
MASGILVNVKEEVTCPICLELLTQPLSLDCGHSFCQACLTANHKKSMLDKGESSCPVCRISYQPENIRPNRHVANIVEKLREVKLSPEGQKVDHCARHGEKLLLFCQEDGKVICWLCERSQEHRGHHTFLTEEVAREYQVKLQAALEMLRQKQQEAEELEADIREEKASWKTQIQYDKTNVLADFEQLRDILDWEESNELQNLEKEEEDILKSLTNSETEMVQQTQSLRELISDLEHRLQGSVMELLQGVDGVIKRTENVTLKKPETFPKNQRRVFRAPDLKGMLEVFRELTDVRRYWVDVTVAPNNISCAVISEDKRQVSSPKPQIIYGARGTRNFNYCTGILGSQSITSGKHYWEVDVSKKTAWILGVCAGFQPDAMCNIEKNENYQPKYGYWVIGLEEGVKCSAFQDSSFHTPSVPFIVPLSVIICPDRVGVFLDYEACTVSFFNITNHGFLIYKFSHCSFSQPVFPYLNPRKCGVPMTLCSPSS [human TRIM5α, 5-codon deletion at 336]	0.625 ± 0.45
MASGILVNVKEEVTCPICLELLTQPLSLDCGHSFCQACLTANHKKSMLDKGESSCPVCRISYQPENIRPNRHVANIVEKLREVKLSPEGQKVDHCARHGEKLLLFCQEDGKVICWLCERSQEHRGHHTFLTEEVAREYQVKLQAALEMLRQKQQEAEELEADIREEKASWKTQIQYDKTNVLADFEQLRDILDWEESNELQNLEKEEEDILKSLTNSETEMVQQTQSLRELISDLEHRLQGSVMELLQGVDGVIKRTENVTLKKPETFPKNQRRVFRAPDLKGMLEVFRELTDVRRYWVDVTVAPNNISCAVISEDKRQVSSPKPQIIPQIIYGARGTRYQTFVNFNYCTGILGSQSITSGKHYWEVDVSKKTAWILGVCAGFQPDAMCNIEKNENYQPKYGYWVIGLEEGVKCSAFQDSSFHTPSVPFIVPLSVIICPDRVGVFLDYEACTVSFFNITNHGFLIYKFSHCSFSQPVFPYLNPRKCGVPMTLCSPSS [human TRIM5α, 4-codon duplication at 325]	1.61 ± 0.11
MASGILVNVKEEVTCPICLELLTQPLSLDCGHSFCQACLTANHKKSMLDKGESSCPVCRISYQPENIRPNRHVANIVEKLREVKLSPEGQKVDHCARHGEKLLLFCQEDGKVICWLCERSQEHRGHHTFLTEEVAREYQVKLQAALEMLRQKQQEAEELEADIREEKASWKTQIQYDKTNVLADFEQLRDILDWEESNELQNLEKEEEDILKSLTNSETEMVQQTQSLRELISDLEHRLQGSVMELLQGVDGVIKRTENVTLKKPETFPKNQRRVFRAPDLKGMLEVFRELTDVRRYWVDVTVAPNNISCAVISEDKRQVSSPKPQPQIIYGARGTRYQTFVNFNYCTGILGSQSITSGKHYWEVDVSKKTAWILGVCAGFQPDAMCNIEKNENYQPKYGYWVIGLEEGVKCSAFQDSSFHTPSVPFIVPLSVIICPDRVGVFLDYEACTVSFFNITNHGFLIYKFSHCSFSQPVFPYLNPRKCGVPMTLCSPSS [human TRIM5α, 2-codon duplication at 325]	0.477 ± 0.16
MASGILVNVKEEVTCPICLELLTQPLSLDCGHSFCQACLTANHKKSMLDKGESSCPVCRISYQPENIRPNRHVANIVEKLREVKLSPEGQKVDHCARHGEKLLLFCQEDGKVICWLCERSQEHRGHHTFLTEEVAREYQVKLQAALEMLRQKQQEAEELEADIREEKASWKTQIQYDKTNVLADFEQLRDILDWEESNELQNLEKEEEDILKSLTNSETEMVQQTQSLRELISDLEHRLQGSVMELLQGVDGVIKRTENVTLKKPETFPKNQRRVFRAPDLKGMLEVFRELTDVRRYWVDVTVAPNNISCAVISEDKRQVSSPKPQIIYGARYQTFVNFNYCTGILGSQSITSGKHYWEVDVSKKTAWILGVCAGFQPDAMCNIEKNENYQPKYGYWVIGLEEGVKCSAFQDSSFHTPSVPFIVPLSVIICPDRVGVFLDYEACTVSFFNITNHGFLIYKFSHCSFSQPVFPYLNPRKCGVPMTLCSPSS [human TRIM5α, 3-codon deletion at 332]	0.138 ± 0.15
MASGILVNVKEEVTCPICLELLTQPLSLDCGHSFCQACLTANHKKSMLDKGESSCPVCRISYQPENIRPNRHVANIVEKLREVKLSPEGQKVDHCARHGEKLLLFCQEDGKVICWLCERSQEHRGHHTFLTEEVAREYQVKLQAALEMLRQKQQEAEELEADIREEKASWKTQIQYDKTNVLADFEQLRDILDWEESNELQNLEKEEEDILKSLTNSETEMVQQTQSLRELISDLEHRLQGSVMELLQGVDGVIKRTENVTLKKPETFPKNQRRVFRAPDLKGMLEVFRELTDVRRYWVDVTVAPNNISCAVISEDKRQVSSPKPQIIYGARGTNFNYCTGILGSQSITSGKHYWEVDVSKKTAWILGVCAGFQPDAMCNIEKNENYQPKYGYWVIGLEEGVKCSAFQDSSFHTPSVPFIVPLSVIICPDRVGVFLDYEACTVSFFNITNHGFLIYKFSHCSFSQPVFPYLNPRKCGVPMTLCSPSS [human TRIM5α, 6-codon deletion at 335]	0.947 ± 0.96
MASGILVNVKEEVTCPICLELLTQPLSLDCGHSFCQACLTANHKKSMLDKGESSCPVCRISYQPENIRPNRHVANIVEKLREVKLSPEGQKVDHCARHGEKLLLFCQEDGKVICWLCERSQEHRGHHTFLTEEVAREYQVKLQAALEMLRQKQQEAEELEADIREEKASWKTQIQYDKTNVLADFEQLRDILDWEESNELQNLEKEEEDILKSLTNSETEMVQQTQSLRELISDLEHRLQGSVMELLQGVDGVIKRTENVTLKKPETFPKNQRRVFRAPDLKGMLEVFRELTDVRRYWVDVTVAPNNISCAVISEDKRQVSSPKPQIIYGARGTRYQTFVNFVNFNYCTGILGSQSITSGKHYWEVDVSKKTAWILGVCAGFQPDAMCNIEKNENYQPKYGYWVIGLEEGVKCSAFQDSSFHTPSVPFIVPLSVIICPDRVGVFLDYEACTVSFFNITNHGFLIYKFSHCSFSQPVFPYLNPRKCGVPMTLCSPSS [human TRIM5α, 3-codon duplication at 340]	0.188 ± 0.0045
